Measured values: the supplement of paper PMC11417369
± gives the standard deviation of the averaged measurements. The list shows a part of the results.

Tested on: PfAP2-EXP AP2 domain (GST-tagged)
Assay: gcPBM binding intensity (ln(normalized median fluorescence intensity)); higher = stronger DNA binding
Outline: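 GST-tagged P. falciparum DNA-binding domains produced in E. coli were incubated for 1 h on an Agilent 4 × 180k array of primer-extended double-stranded 36-bp intergenic genomic probes with negative controls. Binding intensity is the highest Masliner-normalised natural-log median intensity across replicate spots of either probe orientation, with bound protein detected by Alexa488 anti-GST antibody at 488 nm.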

Sequence | gcPBM binding intensity (ln)
ATAAGTATTACTAGTACACACAAGTTGTTAATCCTT [CACACA_site3324] | 8.8 ± 0.45
TATTTAAAATAATAACAAAATTAACATAAATATATA [GTGCAC_negctrl_site472] | 8.31 ± 0.42
TTAGATATAAAAGCATGTACTTGTATAAAATATATA [XGTACX_site8272] | 8.35 ± 0.42
TTCCCTATATAGAGCATGCACTATATTCAAATGATG | 9.23 ± 0.16
TTATCAAATGAGTGTTGTACGTCTTTTGAAATACCA [XGTACX_site8804] | 8.29 ± 0.3
GAAAAATTGAATTTGGGTACATATAAATATTATATT [XGTACX_site2363] | 8.27 ± 0.35
ATAAATATTAGCAGTTGTACAATAAATATATGTAAT [XGTACX_site2534] | 8.71 ± 0.38
TATGAACACCCAAATACACACACTCAAAAAAAAAAA [CACACA_site5466] | 8.4 ± 0.32
AAAATGTTTTTATCCAGTACATAAATATATATATAT [XGTACX_site7398] | 9.89 ± 0.26
TCAGATCCATAGAAGGTGCAAATAACAAAAATACAA [GTGCAC_site9610] | 9.23 ± 0.11
TAATTTTTCTTATATAGTACACAAAAAGAAAATTAC [XGTACX_site6393] | 8.61 ± 0.34
ATATATATATATATATGTACATATATTTGTAATGTC [XGTACX_site8074] | 10.2 ± 0.43
TTTATTATGTAAGCATGTACATGATGTATATATTTA [XGTACX_site5021] | 8.58 ± 0.34
TATTTACAAATAAAAAGTACATAAACTAATATCTTT [XGTACX_site2181] | 8.45 ± 0.29
ATCTGTACAGTTTTTGCACACATATAAATAAAAAAA [CACACA_site9198] | 9.045 ± 0.007
TATATTAGAAAGGATACACACATATATAAATATCTA [CACACA_site6411] | 8.41 ± 0.29
TTGTTTGTAAACAGATGTACATATAAAAATATATAT [XGTACX_site3370] | 8.46 ± 0.014
TAAATACTTATATGTACACACATATAGATATATATT [CACACA_site2553] | 8.27 ± 0.26
ATATAAATAAATGTATGTACATATATTTATATGCAT [XGTACX_site4185] | 8.41 ± 0.3

Sequence | gcPBM binding intensity (ln)
ATTTTTTAAAATATTTGTACATATATAATGCATATA [XGTACX_site7026] | 8.65 ± 0.35
CACAGACACGGACACACACACACACCGATATATATA [CACACA_site4353] | 8.8 ± 0.35
ACATAATAAAAAAAACGTACAAATAGGTTTTTCATA [XGTACX_site6645] | 8.51 ± 0.35
GACTATTTTAATATTTTACACACCATGTAAAATATA [CACACA_site9050] | 8.73 ± 0.38
TTTTTTTATTATTAAAGTACTAAAAAATGAAAACTG [XGTACX_site6758] | 8.26 ± 0.18
TATAATAAAAAATGTACACACATAAGAAAATTTAAT [CACACA_site2901] | 8.86 ± 0.36
TGGGAATAAAAACACACACACACACCGATATATATA [CACACA_site5875] | 8.88 ± 0.39
ATATATTAAAACCTAGTGCATTTGTACATATTTCAA | 8.6 ± 0.24
GCAGTCAAAAAGGAAAATATAAAAAAAGTATATGTG [GTGCAC_negctrl_site95] | 8.47 ± 0.36
TTATACAGGACAATAGTGCACATAAATATATGTATA | 9.07 ± 0.16
AGGTTAAAACATATATATATATATATATATATATAT [XGTACX_negctrl_site333] | 9.99 ± 0.81
TATATATATATATACACACACACCGTCCGTGTTAAA [CACACA_site2979] | 10.1 ± 0.38
AAGTAATTTATGCATACACACATATATAAATATGTA [CACACA_site7813] | 8.51 ± 0.37
ATATATATAAAACACACACACACATGTTTTAAAACT [CACACA_site78] | 8.88 ± 0.49
AAAAACTATTGTAGGACACACAAAATTCCAATTTTA [CACACA_site1701] | 8.47 ± 0.42
AAATAAATGTTATGCATACACACTTTATACCTATTT [CACACA_site3779] | 8.66 ± 0.47
TCTTTTATGTTTGTTTTTCCCTTTTTTTATGTTCCC [CACACA_negctrl_site1722] | 8.96 ± 0.64
AATGAATGAATTATTTTGCGCTTATTATAGGACGAA [XGTACX_negctrl_site218] | 8.6 ± 0.41
ATATATATTAGGTATTGTACTTATATGCATATAAGT [XGTACX_site2700] | 8.71 ± 0.33

Sequence | gcPBM binding intensity (ln)
TATATATATATTTATACACACATTAGTGTATACATG [CACACA_site2950] | 9.6 ± 0.22
CACAAAAAGAAACACACACACATATATATTTATTAT [CACACA_site3646] | 8.45 ± 0.49
GTAAGCACACATAGTTGTACATTAATAAAAATAAAT [XGTACX_site5876] | 8.62 ± 0.38
ATATGTATGAAGTGTACACATATATTGTATTTTCTT [CACACA_site5503] | 8.68 ± 0.4
TTCCTATAAAAAAACACACACATATAAATATATATA [CACACA_site2318] | 8.31 ± 0.29
TACAATTTAATATATACACACAAATAAATTATGCTT [CACACA_site856] | 8.07 ± 0.41
AACAATTTATATAAAGCACACATGGGAAGGAAATAC [CACACA_site1712] | 9.61 ± 0.38
TTATTGCATATTTACACACGTACTAATTTAAACAAG [CACACA_site971] | 8.79 ± 0.37
AGAATATTTAAAAAAGGTACACAAAAACCAAAATAA [XGTACX_site8569] | 8.9 ± 0.42
ATATATGACAAATGTAGTACAAATTATTGTATCATA [XGTACX_site3675] | 8.48 ± 0.31
ATAAATTCATATATGAGTACTAAAAATATCTTTTTC [XGTACX_site5541] | 8.47 ± 0.44
TATTAATACAGACACACACACACACCCAATAAAATA [CACACA_site243] | 8.71 ± 0.69
CAATGGTCATTTAGTTGTACTTAATTTTAAATCAAA [XGTACX_site4075] | 8.39 ± 0.22
AAAAAAAACGAACACACACACATTCAATATAAAACA [CACACA_site6170] | 8.65 ± 0.54
TTAAAAATATTATGTACACACATTTGAGATATTTGT [CACACA_site6953] | 8.2 ± 0.35
TTTTTTGTTATTAAAAGTACATTATATGCTAGTTAA [XGTACX_site8747] | 8.22 ± 0.3
TGAAATAAAATTTATACACACTTGCTAAATGATCAT [CACACA_site4265] | 8.32 ± 0.47
TATCATTAATTTACATGTACATAAATGAATGTTTAT [XGTACX_site5608] | 8.39 ± 0.28
TTCGTAATTTATATCACACACATATATCTATAATAA [CACACA_site7458] | 8.6 ± 0.18
